# Source: PubChem BioAssay AID651812 (National Center for Advancing Translational Sciences (NCATS), 2012)
# In all, about 2,100 compounds went through this assay and about 650 (31%) were called active. Inconclusive means that the source gave no clear call. Such entries were picked first, then a sample of the others. The call rests on the fitted dose curve; in most records, active means well fitted inhibition curve with a large enough effect; inconclusive means small, poorly fitted or top-dose-only effect; inactive means flat fitted curve, though single readings scatter. No potency is given beside an inconclusive call; the fits are too rough.
# Experiment: qHTS for inhibitors of Vif-A3G interactions: Cherry picks; further: nearly all actives have a fitted effect of over 80% in size
# Conditions: HeLa A3G-eYFP + Vif (tagged APOBEC3G with the HIV-1 protein that degrades it), 24 h; Potency: eYFP fluorescence increase unless noted; series mostly up to 36.9 µM
# Outline: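 HeLa cells stably expressing A3G-eYFP and Vif, cultured overnight then exposed to compounds at several concentrations for 24 hours at 37 C, 5% CO2; cellular yellow fluorescence (488 nm ex, 500-530 nm em) imaged on Acumen, MG132 positive control.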
# Potency means the concentration at half of the fitted maximal effect; tags describe the fitted curve by direction and shape.
row,Compound,Potency
1,CC1(C(=O)NCc2ccccc2)Cc2c(-c3cccc(C(N)=O)c3)ccnc2O1 (centres undefined),inactive
2,Cc1cccc2cc3c(N)c(C(=O)Nc4ccc(N5CCOCC5)cc4)sc3nc12,active: 14 µM
3,CCN1/C(=C/c2cc[n+](C)cc2)C=Cc2cc(C)ccc21,active: 23.1 µM
4,COc1cccc(Sc2ccccc2/C=N/NC(N)=O)c1,inactive
5,COc1cc(Nc2nc3ccccc3n3nnnc23)cc(OC)c1OC,active: 20.6 µM
6,CCOc1c(Cl)cc(/C=N/NC(N)=S)cc1OC,inactive
7,C=C(C(=O)c1ccccc1)C(C)C(=C)C(=O)c1ccccc1,"inconclusive [inhibitor, single point]"
8,COc1ccc(N=Cc2sc(O)c3ccccc23)cc1,active: 12.5 µM
9,N#C/C(=C\c1ccc(N2CCOCC2)o1)c1ccccc1,"inconclusive [inhibitor, single point]"
10,COCCNC(=S)N/N=C/c1ccc(-c2ccc([N+](=O)[O-])cc2)o1,"inconclusive [inhibitor, single point]"
11,Cc1c(N=N/C(C(=O)Nc2ccccc2)=C(/O)c2ccccc2)c(=O)n(-c2ccccc2)n1C,"inconclusive [inhibitor, single point]"
12,COc1ccc(NC(=S)NN(C)C(=S)Nc2ccc(OC)cc2)cc1,inactive
13,Cc1ccc(-n2nc3c(SCCN4CCOCC4)nnc(C)c3c2C)cc1,"inconclusive [inhibitor, single point]"
14,COc1ccc(-n2c(C)cc(/C=C3\SC(=S)NC3=O)c2C)cc1,"inconclusive [inhibitor, single point]"
15,O=C1C(=Cc2cccn2-c2ccccc2)C(=O)c2ccccc21,"inconclusive [inhibitor, single point]"
16,C=CCNC(=O)C(C#N)c1nc2ccccc2nc1N1CCN(Cc2ccccc2)CC1 (centres undefined),"inconclusive [inhibitor, single point]"
17,CCc1ccc(CNC(=O)Cc2ccc(NC(=O)C3=C(C)OCCS3)cc2)cc1,inactive
18,COc1ccc2nc(SCC(=O)Nc3ccc4sc(C)nc4c3)c(C#N)cc2c1,active: 20.6 µM
19,COc1cc(/C=C2\SC(N)=NC2=O)cc(Br)c1O,"inconclusive [inhibitor, single point]"
20,CC(C)(C)NCC(=Cc1ccccc1)C(=O)c1ccccc1,inactive
21,CCOc1ccc(-c2cc(C(F)(F)F)c(C#N)c(SCC(=O)Nc3ccccc3)n2)cc1,active: 18.4 µM
22,Cc1nc(C)c(C(=O)OCC(=O)Nc2ccccc2SCC#N)s1,"inconclusive [inhibitor, single point]"
23,CC(=O)c1c(C)[nH]c(C(=O)Nc2ccc(Cl)cc2F)c1C,"inconclusive [inhibitor, single point]"
24,Cc1ccc(C(=O)CCC(=O)OCC(=O)Nc2ccccc2SCC#N)cc1,"inconclusive [inhibitor, single point]"
25,N#C/C(=C/c1ccc(N2CCCCCC2)o1)c1ccc(Cl)cc1,active: 0.651 µM

row,Compound,Potency
1,CCN(CC)S(=O)(=O)c1cc([N+](=O)[O-])ccc1N=Nc1c(O)[nH]c2ccccc12,active: 20.6 µM
2,O=C(CN1C(=O)S/C(=C\c2cc(Cl)c(O)c(Cl)c2)C1=O)Nc1ccccc1,active: 20.6 µM
3,CN(C)C=Nc1c(Br)cc(Br)c2nonc12,active: 9.2 µM
4,CN1C(=O)c2cccc(NCCCN3C(=O)c4ccccc4C3=O)c2C1=O,"inconclusive [inhibitor, single point]"
5,COc1cc(OC)c(/C=C2\SC(=O)N(CC(=O)Nc3ccccc3F)C2=O)c(OC)c1,"inconclusive [inhibitor, single point]"
6,CCCC(=O)NC(c1ccc(OC)cc1)c1c(O)ccc2ccccc12 (centres undefined),inactive
7,CCOc1ccc(CNC(=O)c2ccccc2NC(=O)c2nsc3ccccc23)cc1,"inconclusive [inhibitor, single point]"
8,COc1ccc(-c2cnc3c(NC=O)cc(-c4ccoc4)cn23)cc1OC,inactive
9,Cc1ccc(CNC(=O)Cn2cc(C(=O)c3ccc(Cl)cc3)c(=O)c3ccc(C)nc32)cc1,"inconclusive [inhibitor, single point]"
10,COc1ccc(NC(=O)c2cc(-c3ccccc3OC)on2)cc1,inactive
11,COC(=O)c1ccc(Cl)cc1NC(=O)N1CC=C(c2c[nH]c3ccccc23)CC1,"inconclusive [inhibitor, single point]"
12,COc1ccc(/C=C/C(=O)c2ccc([N+](=O)[O-])o2)cc1,inactive
13,Nc1c(C(=O)Nc2nc3ccccc3s2)sc2nc(-c3cccs3)ccc12,active: 18.4 µM
14,Cc1ccc(/C=C2/CNC/C(=C/c3ccc(C)cc3)C2=O)cc1,"inconclusive [inhibitor, single point]"
15,COc1cc(OC)cc(C(=O)N2CC(=O)Nc3ccccc32)c1,inactive
16,CC(=O)Nc1sc(/C(C#N)=C\c2cccc(Cl)c2)nc1-c1ccc(C)cc1,active: 8.2 µM
17,CCOC(=O)c1cc(-c2ccccc2)sc1NC(=S)Nc1cc(C)ccn1,active: 10.3 µM
18,CCOc1ccc(CCNC(=O)c2ccc(Cn3c(=O)c4cccn4c4cccnc43)cc2)cc1,"inconclusive [inhibitor, single point]"
19,CCCCN1C(=O)/C(=C/C=C2\Oc3ccccc3N2CC)SC1=S,"inconclusive [inhibitor, partial curve, poor fit]"
20,Cc1ccnc(NC(=S)NC(=O)/C=C/c2ccco2)c1,inactive
21,CC1=CC(C)(C)Nc2ccc(OC(=O)CCN3C(=O)c4ccccc4C3=O)cc21,"inconclusive [inhibitor, single point]"
22,O=C1c2cccc3c(N4CCCCC4)ccc(c23)C(=O)N1c1ccc(O)cc1,"inconclusive [inhibitor, single point]"
23,O=C(CSc1nc2ccccc2s1)c1cc2ccccc2o1,inactive
24,O=[N+]([O-])c1ccc(C2=Nc3cc(Cl)ccc3OC2)cc1,active: 29.1 µM
